Test results taken from PubChem BioAssay (Tox21).
“And” between values parts separate entries of the source, which are not always exact repeats. Identical values can stand only once. This list was built around the results that the source calls inconclusive (neither active nor inactive); the mix of calls is not that of the screen. For some assays here: Potencies of inconclusive entries are doubtful fits and often do not repeat. The source made the active and inactive calls. Unless noted, calls come from the whole dose curve; as a rule, active = well fitted curve in the direction sought with a large enough effect in the repeat runs; inconclusive = weak or mixed curves; inactive = no such curve, though single readings can be large; an effect the other way counts as inactive or inconclusive.

Legend:
[1] = qHTS assay to identify small molecule agonists of the retinoic acid receptor (RAR) signaling pathway (AID 1159553); details: C3RL4 RARE luciferase reporter, agonist, 6 h; activation: at 73.3 µM (top of the series) unless noted; note: potency is the fitted concentration of half-maximal effect; for activation: % is set by controls: 0 for no effect and ±100 for the full control effect
Summary of the method: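 Compounds dissolved in DMSO were pinned onto C3RL4 cells seeded the previous day, and plates were held 6 hr at 37 C. RARE-driven luciferase output was then read by luminescence.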

[2] = qHTS assay to identify small molecule antagonists of the estrogen related receptor (ERR) signaling pathway from Tox21 library - cell viability counter screen (AID 1224834); details: ERR reporter cells viability, CellTiter-Fluor, 17.5 h; series mostly up to 92.4 µM; note: nearly all actives have a fitted effect of over 30% in size; note: potency is the fitted concentration of half-maximal effect
Summary of the method: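 In this quantitative HTS format, ERR cells receive compounds in DMSO and are incubated for 17.5 h at 37 C. Live-cell protease activity is then detected with CellTiter-Fluor.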

[3] = biological target: Nuclear receptor subfamily 1 group I member 3 (Homo sapiens) (UniProt Q14994); experiment: qHTS assay to identify small molecule agonists of the constitutive androstane receptor (CAR) signaling pathway (AID 1224839); details: HepG2 hCAR CYP2B6-luciferase, agonist mode, 24 h; series mostly up to 92.4 µM; note: potency is the fitted concentration of half-maximal effect; nearly all actives have a fitted effect of over 15% in size
Summary of the method: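 Stable hCAR/CYP2B6-2.2kb HepG2 line in DMEM with 10% FBS; compounds (15 concentrations) and 0.75 uM PK11195 final, 24 h at 37 C/5% CO2, then ONE-Glo luminescence after 30 min.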

[4] = qHTS assay to identify small molecule antagonists of the constitutive androstane receptor (CAR) signaling pathway - cell viability counter screen (AID 1224837); details: HepG2-CYP2B6-hCAR viability, CellTiter-Fluor, 23 h, co-treated with 50 nM CITCO; series mostly up to 92.4 µM; note: potency is the fitted concentration of half-maximal effect; nearly all actives have a fitted effect of over 45% in size
Summary of the method: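 In quantitative HTS format, compounds at 15 concentrations were applied to HepG2 cells double-transfected with hCAR and CYP2B6-2.2kb under 50 nM CITCO stimulation; live-cell protease activity was read after 23 hr via CellTiter-Fluor.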

[5] = biological target: Nuclear receptor subfamily 1 group I member 3 (Homo sapiens) (UniProt Q14994); experiment: qHTS assay to identify small molecule antagonists of the constitutive androstane receptor (CAR) signaling pathway (AID 1224838); details: HepG2-CYP2B6-hCAR luciferase, CITCO-stimulated, 24 h; series mostly up to 92.4 µM; note: potency is the fitted concentration of half-maximal effect; nearly all actives have a fitted effect of over 40% in size
Summary of the method: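 CITCO-stimulated (50 nM final) HepG2 cells stably transfected with hCAR and CYP2B6-2.2kb luciferase were exposed to compounds at 15 concentrations for 24 h at 37 C/5% CO2. A luciferase reagent was added and luminescence recorded after 30 min.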

[6] = biological target: Thyrotropin receptor (Homo sapiens) (UniProt P16473); experiment: qHTS assay to identify small molecule agonists of the thyroid stimulating hormone receptor (TSHR) signaling pathway (AID 1224843; calls by dose curve; note: nearly all actives have a fitted effect of over 45% in size; note: potency is the fitted concentration of half-maximal effect; for activation: % is set by controls: 0 for no effect and ±100 for the full control effect); details: TSHR-HEK293 cells, cAMP HTRF, agonist mode, 30 min; activation: at 92.4 µM (top of the series) unless noted
Summary of the method: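 Agonist activity read as cAMP rise via d2/cryptate HTRF competition, 1 h room-temperature detection, in HEK293 cells expressing TSHR. Fifteen-point titrations, each run in triplicate, with a 30 min room-temperature incubation beforehand.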

[7] = qHTS assay to identify small molecule agonists of the estrogen related receptor signaling pathway with the pleiotropic PPARgamma coactivator (PGC) from Tox21 10K library (AID 1224842); details: PGC/ERR reporter cell line, luciferase ONE-Glo, 18 h; series mostly up to 42.5 µM; note: potency is the fitted concentration of half-maximal effect; nearly all actives have a fitted effect of over 15% in size
Summary of the method: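 Luminescence from One-Glo (30 min, room temperature) measured after PGC/ERR cells had 18 h at 37 C with pinned compound (23 nL in DMSO). Cells had been seeded at 2,000 per well and pre-incubated 6 h.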

[8] = biological target: Luciferin 4-monooxygenase (Photinus pyralis) (UniProt P08659); experiment: qHTS assay to identify small molecule inhibitors of firefly luciferase (AID 1224835); note: potency is the fitted concentration of half-maximal effect; nearly all actives have a fitted effect of over 25% in size; details: purified P. pyralis luciferase, luminescence inhibition; series mostly up to 115 µM
Summary of the method: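 Inhibition of purified Photinus luciferase is measured by luminescence. Substrate levels (D-luciferin, ATP) sit at their KM values. Each compound is tested in a concentration series.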

[9] = qHTS assay to identify small molecule antagonists of the estrogen related receptor (ERR) signaling pathway - cell viability counter screen (AID 1224818); details: ERR reporter cell line viability counter screen; series mostly up to 46.1 µM; note: potency is the fitted concentration of half-maximal effect
Summary of the method: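 Cytotoxicity check run alongside the ERR antagonist screen: cells exposed to test compounds 17.5 h at 37 C, viability taken as CellTiter-Fluor fluorescence intensity.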

[10] = qHTS assay to identify small molecule antagonists of the estrogen related receptor (ERR) signaling pathway (AID 1224819;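 note: luminescence from an ERR-driven luciferase reporter measured with One-Glo reagent; % is set by controls: 0 for no effect and ±100 for the full control effect; nearly all actives have a fitted effect of over 50% in size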); details: ERR reporter cell line, luciferase inhibition; series mostly up to 92.2 µM
Summary of the method: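 ERR reporter cells were plated at 2,000 cells/well and left 6 h at 37 C/5% CO2 before pin-tool transfer of compounds in DMSO. After 18 h at 37 C, One-Glo was added and luminescence was read 30 min later at room temperature.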

[11] = qHTS assay to identify small molecule agonists of the estrogen related receptor (ERR) signaling pathway (AID 1224820); details: ERR reporter cell line, luciferase agonist mode; note: potency is the fitted concentration of half-maximal effect
Summary of the method: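 An ERR cell line provided by NTP was seeded at 2,000 cells per well and allowed to settle for 6 h before compounds in DMSO were added. After 18 h at 37 C, luciferase activity was measured by One-Glo luminescence.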

[12] = qHTS assay to identify small molecule agonists of the constitutive androstane receptor (CAR) signaling pathway - cell viability counter screen (AID 1224836); details: HepG2-CYP2B6-hCAR viability, CellTiter-Fluor, 23 h, PK11195 added to every well; series mostly up to 92.4 µM; note: nearly all actives have a fitted effect of over 45% in size; note: potency is the fitted concentration of half-maximal effect
Summary of the method: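 Fluorescence from CellTiter-Fluor indicates live cells after 23 h exposure. The human hepatoma line expresses hCAR and a CYP2B6-2.2kb reporter. Incubation medium contains 0.75 uM PK11195 (final).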

[13] = qHTS assay to identify small molecule antagonists of the estrogen related receptor signaling pathway with the pleiotropic PPARgamma coactivator (PGC) from Tox21 10K library - cell viability counter screen (AID 1224840; active = well fitted cell-killing curve with a large enough effect in the repeat runs, not every such curve was filed as active; inconclusive = weak or mixed curves, or effect the other way; inactive = no such curve, though single readings can be large or run the other way; note: nearly all actives have a fitted effect of over 40% in size; note: potency is the fitted concentration of half-maximal effect); details: PGC/ERR reporter cells viability, CellTiter-Fluor, 17.5 h; series mostly up to 92.4 µM
Summary of the method: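 Viability counter screen, PGC/ERR cells: 17.5 h compound exposure at 37 C, CellTiter-Fluor fluorescence endpoint.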

[14] = qHTS assay to identify small molecule antagonists of the estrogen related receptor signaling pathway with the pleiotropic PPARgamma coactivator (PGC) from Tox21 10K library (AID 1224841; call rule not given here; note: potency is the fitted concentration of half-maximal effect; actives are mostly falling curves and most rising ones were filed inactive; nearly all actives have a fitted effect of over 50% in size); details: PGC/ERR reporter cell line, ONE-Glo luciferase, 18 h; series mostly up to 92.4 µM
Summary of the method: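 In the PGC/ERR line, DMSO solutions of test chemicals are pin-delivered to 2,000 cells/well six hours after dispensing. Following eighteen hours' incubation, One-Glo reagent is added and luminescence recorded.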

[15] = qHTS assay to identify small molecule agonists of the hypoxia (HIF-1) signaling pathway - cell viability counter screen (AID 1224844; calls by dose curve; note: nearly all actives have a fitted effect of over 50% in size; note: potency is the fitted concentration of half-maximal effect); details: HRE-bla ME-180 viability, CellTiter-Glo luminescence, 17 h; series mostly up to 76.8 µM
Summary of the method: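 Same wells as the HIF-1 reporter screen; ME-180 cells carrying HRE-bla, 17 hr treatment at 37C; CellTiter-Glo luminescence read after 30 min at room temperature.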
Tags give direction and shape of the fitted curve or compound fluorescence and quenching.

UniProt P16473, sequence (P16473 whole entry, looked up): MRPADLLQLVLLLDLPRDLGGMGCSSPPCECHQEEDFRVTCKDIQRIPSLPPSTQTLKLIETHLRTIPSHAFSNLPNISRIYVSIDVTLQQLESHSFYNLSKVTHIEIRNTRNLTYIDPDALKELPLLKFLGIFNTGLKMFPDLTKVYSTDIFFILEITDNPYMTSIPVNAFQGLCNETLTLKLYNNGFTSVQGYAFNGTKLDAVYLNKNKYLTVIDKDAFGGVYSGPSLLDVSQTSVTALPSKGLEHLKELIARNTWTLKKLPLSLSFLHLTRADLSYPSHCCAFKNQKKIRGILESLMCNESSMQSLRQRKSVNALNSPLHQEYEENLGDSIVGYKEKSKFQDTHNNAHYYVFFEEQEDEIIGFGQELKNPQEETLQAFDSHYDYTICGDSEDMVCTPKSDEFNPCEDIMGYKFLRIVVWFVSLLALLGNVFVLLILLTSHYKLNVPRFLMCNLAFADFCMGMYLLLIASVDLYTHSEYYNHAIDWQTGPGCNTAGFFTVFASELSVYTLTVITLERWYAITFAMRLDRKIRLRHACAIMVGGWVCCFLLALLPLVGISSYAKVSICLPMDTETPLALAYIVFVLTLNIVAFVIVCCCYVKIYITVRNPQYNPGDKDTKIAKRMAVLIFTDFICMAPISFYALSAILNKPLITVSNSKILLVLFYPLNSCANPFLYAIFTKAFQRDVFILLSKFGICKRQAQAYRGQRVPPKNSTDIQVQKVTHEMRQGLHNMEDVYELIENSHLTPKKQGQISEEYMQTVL
UniProt P08659, sequence (P08659 whole entry, looked up): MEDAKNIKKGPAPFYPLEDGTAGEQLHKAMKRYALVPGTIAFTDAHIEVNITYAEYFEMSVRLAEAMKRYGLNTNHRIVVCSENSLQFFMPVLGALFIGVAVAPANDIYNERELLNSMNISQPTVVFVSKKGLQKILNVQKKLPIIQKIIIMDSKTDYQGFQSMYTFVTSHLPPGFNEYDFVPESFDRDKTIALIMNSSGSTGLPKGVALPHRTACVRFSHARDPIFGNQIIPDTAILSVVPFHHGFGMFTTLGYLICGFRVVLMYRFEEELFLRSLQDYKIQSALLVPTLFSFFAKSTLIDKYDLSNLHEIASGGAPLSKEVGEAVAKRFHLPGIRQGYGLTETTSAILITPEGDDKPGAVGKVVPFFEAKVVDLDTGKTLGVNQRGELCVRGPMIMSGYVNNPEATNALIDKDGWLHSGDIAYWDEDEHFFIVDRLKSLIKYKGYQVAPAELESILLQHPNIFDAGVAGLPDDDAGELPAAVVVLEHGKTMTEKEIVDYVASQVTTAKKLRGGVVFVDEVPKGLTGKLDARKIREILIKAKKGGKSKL
UniProt Q14994, sequence (Q14994 whole entry, looked up): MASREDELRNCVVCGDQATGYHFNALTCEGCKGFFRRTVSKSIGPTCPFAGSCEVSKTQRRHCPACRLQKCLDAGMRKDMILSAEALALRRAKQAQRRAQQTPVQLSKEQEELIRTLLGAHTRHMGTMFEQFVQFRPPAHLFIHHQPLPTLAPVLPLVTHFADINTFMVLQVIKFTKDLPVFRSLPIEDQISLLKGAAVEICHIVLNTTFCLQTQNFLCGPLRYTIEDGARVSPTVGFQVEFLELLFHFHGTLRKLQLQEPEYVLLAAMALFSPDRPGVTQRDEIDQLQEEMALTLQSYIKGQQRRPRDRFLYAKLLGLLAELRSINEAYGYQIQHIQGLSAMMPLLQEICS

O=C1c2cccc(O)c2C(=O)c2c(O)cccc21
Potency [1]: inconclusive: 26.6 µM [activator, partial curve, poor fit]
Potency [2]: inconclusive: 24.6 µM [cytotoxic] and inconclusive: 18.8 µM [cytotoxic, partial curve]
Potency [3]: inconclusive: 61.8 µM [activator, partial curve, poor fit]

OC[C@H]1O[C@@H]2O[C@H]3[C@H](O)[C@@H](O)[C@@H](O[C@H]4[C@H](O)[C@@H](O)[C@@H](O[C@H]5[C@H](O)[C@@H](O)[C@@H](O[C@H]6[C@H](O)[C@@H](O)[C@@H](O[C@H]7[C@H](O)[C@@H](O)[C@@H](O[C@H]1[C@H](O)[C@H]2O)O[C@@H]7CO)O[C@@H]6CO)O[C@@H]5CO)O[C@@H]4CO)O[C@@H]3CO
Potency [1]: inconclusive: 54.4 µM [inhibitor, single point]
activation [1]: inconclusive: -2.79% [phenotype inactive]
Potency [4]: inconclusive: 32.4 µM [cytotoxic, single point]
Potency [5]: inconclusive: 32.4 µM [inhibitor, single point]
Potency [6]: inconclusive: 22.9 µM [inhibitor, partial curve, poor fit]

C(=C\c1ccccc1)/c1ccccc1
Potency [1]: active: 8.56 µM
Potency [2]: inactive
Potency [3]: inconclusive: 34.1 µM [activator, partial curve]
Potency [7]: inconclusive: 12.1 µM [activator, partial curve, poor fit]

Cc1cccc(C)c1NC(=O)c1cc(S(N)(=O)=O)c(Cl)cc1O
Potency [1]: inconclusive: 23.7 µM [activator, partial curve, poor fit]
Potency [8]: inconclusive: 27.5 µM [inhibitor, partial curve]

OCC#CCO
activation [1]: inconclusive: 5.98% [phenotype inactive]

OCC(O)CN1CCN(c2ccccc2)CC1 (centres undefined)
Potency [1]: inactive

Nc1ccc(O)c([N+](=O)[O-])c1
Potency [1]: inconclusive: 0.0017 µM [activator, full curve]
Potency [9]: inconclusive: 48.6 µM [cytotoxic, partial curve, poor fit]
Potency [10]: inactive
Potency [11]: inconclusive: 64.8 µM [activator]
Potency [8]: active: 79.6 µM
Potency [12]: inconclusive: 30.6 µM [cytotoxic, partial curve]
Potency [4]: inconclusive: 30.6 µM [cytotoxic, partial curve]
Potency [3]: inconclusive: 30.3 µM [activator, partial curve]
Potency [13]: inconclusive: 15.4 µM [cytotoxic, full curve]
Potency [7]: inconclusive: 61.1 µM [activator]
activation [6]: inconclusive: -5.45%

O=[N+]([O-])c1ccc(O)c2ncccc12
Potency [1]: inconclusive: 29.8 µM [activator, partial curve]

CCCCCCCCCC(=O)N(C)C
Potency [1]: inconclusive: 62.1 µM [activator, partial curve, poor fit]
Potency [8]: inconclusive: 72.1 µM [inhibitor, partial curve]
Potency [13]: inactive

O=C(Nc1cccc([N+](=O)[O-])c1)c1cc2ccccc2cc1O
Potency [1]: active: 0.969 µM
Potency [12]: inconclusive: 13.7 µM [cytotoxic, full curve]
Potency [5]: inconclusive: 38.6 µM [inhibitor, partial curve, poor fit]
Potency [14]: inconclusive: 2.73 µM [falling, full curve, poor fit]

O=C1NS(=O)(=O)c2ccccc21
activation [1]: inconclusive: -0.238% [phenotype inactive]
Potency [12]: inactive
Potency [15]: inactive

C[C@]12CC[C@H]3C(=CCc4cc(O)ccc43)[C@@H]1CCC2=O
Potency [1]: inconclusive: 30.6 µM [activator, partial curve, poor fit]
Potency [8]: active: 35.6 µM
Potency [13]: inconclusive: 61.1 µM [cytotoxic, partial curve]
Potency [7]: inconclusive: 6.86 µM [activator, full curve, poor fit]
activation [6]: inconclusive: -25.6%
Potency [15]: active: 38.9 µM
